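Briefly, cells in 96-well plates were exposed to five compound concentrations for 48 h, and endpoints were estimated by linear interpolation. GI50 is the concentration that inhibits growth by half. TGI: concentration producing complete growth inhibition.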
Tested on: NCI-H322M lung
Assay: growth of human tumour cells (NCI), 48 h

CC1(C)CC[C@]23CC[C@]4(C)[C@H](CC[C@@H]5[C@@]6(C)CCCN(CO)C(C)(C)[C@@H]6CC[C@]54C)[C@H]2[C@H]1OC3
GI50: 2.62 µM | TGI: 8.05 µM

Source: PubChem BioAssay (NCI)
